This is an account of results in article PMC6919601, “Identification of Plasmodium dipeptidyl aminopeptidase allosteric inhibitors by high throughput screening” (PLoS ONE, 2019).

The structures appear in SMILES notation. Among all 110,000 compounds or so, about 230 (0.21%) showed an effect of 50% or more. The list shows a part of the results.
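Note: 30 min substrate incubation versus DMSO and 10 µM JCP410 controls.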

Chain of DPAP1 (Q8IIJ9 whole entry, looked up): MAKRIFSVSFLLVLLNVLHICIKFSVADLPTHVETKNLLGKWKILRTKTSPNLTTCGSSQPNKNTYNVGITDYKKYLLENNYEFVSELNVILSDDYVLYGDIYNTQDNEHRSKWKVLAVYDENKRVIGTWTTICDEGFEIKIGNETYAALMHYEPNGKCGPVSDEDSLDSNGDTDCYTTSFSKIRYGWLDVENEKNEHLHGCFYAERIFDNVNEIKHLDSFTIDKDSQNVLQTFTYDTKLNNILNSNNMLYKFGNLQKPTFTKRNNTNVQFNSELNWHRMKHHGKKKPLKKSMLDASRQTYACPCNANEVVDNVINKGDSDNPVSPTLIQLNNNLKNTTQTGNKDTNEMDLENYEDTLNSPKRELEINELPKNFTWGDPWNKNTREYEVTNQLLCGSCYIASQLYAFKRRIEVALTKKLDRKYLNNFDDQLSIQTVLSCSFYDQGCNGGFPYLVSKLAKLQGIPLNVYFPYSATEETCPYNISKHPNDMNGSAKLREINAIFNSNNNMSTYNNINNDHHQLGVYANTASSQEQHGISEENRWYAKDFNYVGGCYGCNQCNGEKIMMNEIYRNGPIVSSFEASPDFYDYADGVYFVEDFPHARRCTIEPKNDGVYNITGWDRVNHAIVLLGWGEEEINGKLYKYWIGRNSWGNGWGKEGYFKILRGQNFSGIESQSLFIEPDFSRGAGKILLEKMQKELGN

This experiment addresses DPAP1 (Plasmodium falciparum, UniProt Q8IIJ9). As to the kind of experiment: primary screen, percent inhibition; read by cleavage of a fluorogenic dipeptide substrate; higher = more effect of the substance. Also noted: species or system P. falciparum D10 trophozoite lysates; single well.
Take `Cc1ccc(N(CC(=O)N2CCC(C)CC2)S(=O)(=O)c2ccccc2)c(C)c1`: the “% Inhibition @ 10 uM” value was 5.85%.

`Cc1nn(-c2nc3ccccc3s2)c2c1C(c1cccc(F)c1F)CC(=O)N2` (centres unmarked): the “% Inhibition @ 10 uM” value was -2.88%. In the case of `Cc1ccc(C)c(NC(=O)CN(c2ccc(C)c(Cl)c2)S(C)(=O)=O)c1` it was 4.47%. In the case of `O=C(CSc1nc(-c2ccccc2)nc2cc(=O)[nH]n12)N1CCCC1` it was 4.97%; in that of `O=C(Nc1cnn(Cc2ccc(F)cc2)c1)c1cc(Cl)ccc1Cl`, -4.89%. In the case of `Cn1ncc(Cl)c1C(=O)Nc1cnn(Cc2ccc(Cl)cc2Cl)c1` it was 0.385%; in that of `Cc1ccc(C2N(c3nccs3)C(=O)C3CCCN32)cc1` (centres unmarked), 1.23%.

On to `Cc1ccc2oc(C(=O)Nc3nc4ccc(S(C)(=O)=O)cc4s3)cc(=O)c2c1`, for which the “% Inhibition @ 10 uM” value is -5.08%. The same measure for `COC1CCCCC1NCCc1ccccc1` (centres unmarked): 3.44%. Regarding `CCO/C(O)=C1/C(C)=NC2=C(C(=O)CCC2)C1c1ccc([N+](=O)[O-])cc1` (centres unmarked), the “% Inhibition @ 10 uM” value was 1.62%. As for `CCOCCn1c(CN2CCc3ccccc3C2)nc2c1c(=O)n(C)c(=O)n2C`, the “% Inhibition @ 10 uM” value is recorded as -3.23%. `COc1ccc(-c2cc(O)cc3sc(=O)oc23)cc1`: the “% Inhibition @ 10 uM” value was 0.968%.

With `CC(C)(C)C(=O)Nc1nnc(COc2ccc(C(C)(C)C)cc2)s1`, the “% Inhibition @ 10 uM” value was determined as 1.58%.

For `CC(=O)c1ccc(OCC(C)C)c(CN2CCCCC2)c1`, the “% Inhibition @ 10 uM” value is 2.24%. Turning to `Cc1cc(C)c2c(-n3cccc3)c(C(=O)NCCN3CCCCCC3)sc2n1`, the “% Inhibition @ 10 uM” value is listed as 3.87%. In the case of `c1csc(-c2csc(-c3nc(-c4cccs4)cs3)n2)c1` it was -2.65%; in that of `CC(=O)c1nn(-c2ccc(Br)cc2)cc1C(=O)c1ccco1`, -3.72%; in that of `c1ccc(OCCCCn2ccnc2)cc1`, 2.76%. The same measure for `Cc1ccc(S(=O)(=O)N(C)c2ccc(C(=O)Nc3ccc4c(c3)OCO4)cc2)cc1`: -4.62%. The same measure for `CCOC(=O)N1CCC(Nc2ccc3[nH]ncc3c2)CC1`: 1.43%. Turning to `c1ccc(-c2ncc3c(ccc4ccccc43)n2)cc1`, the “% Inhibition @ 10 uM” value amounted to 1.44%.

Turning to `Cc1cccnc1NC(=O)C(C)c1ccc(CC(C)C)cc1` (centres unmarked), the “% Inhibition @ 10 uM” value is -3.03%.

With `Cc1ccc(CNCc2c(C(=O)O)n(Cc3ccccc3F)c3ccccc23)cc1`, the “% Inhibition @ 10 uM” value is 22.5%. For `CN(CCC#N)S(=O)(=O)c1ccc(-c2ccc([N+](=O)[O-])cc2)cc1`, the “% Inhibition @ 10 uM” value is on record as -3.48%. In the case of `Cc1ccc(-c2cc(C(=O)NCCCN3CCOCC3)c3ccccc3n2)c(C)c1` it was -1.1%; in that of `NS(=O)(=O)c1ccc(NC2=NC(=O)/C(=C/c3cc(O)ccc3Br)S2)cc1`, 10.1%; in that of `CCOC(=O)N1CCN(Cc2ccc(F)c(F)c2)CC1`, 1.62%. The same measure for `Cc1cccc(NC(=O)CN2CC(c3ccccc3)CC2=O)c1` (centres unmarked): -5.1%. In the case of `COc1ccc(C(=O)Nc2cccc(NC(=O)c3ccc(OC)cc3)n2)cc1` it was 0.605%. As to `COc1ccc(C(=O)Nc2ccccc2C(=O)Nc2ccc(OC)cc2OC)cc1`, the “% Inhibition @ 10 uM” value was 4.98%. In the case of `COc1ccc(C2=NOC(C(=O)NCCCn3ccnc3)C2)cc1` (centres unmarked) it was -3.67%.

On to `Cc1ccsc1/C=C1/C(=O)N=C(N)N1C`, for which the “% Inhibition @ 10 uM” value amounted to 4.18%. The same measure for `Cn1ncc(Cl)c1C(=O)NCc1cc2ccccc2[nH]1`: -0.68%. For the compound `Cc1ccc(-n2c(S)nnc2COc2cccc(C)c2)cc1`, the “% Inhibition @ 10 uM” value is recorded as 10.4%. The same measure for `CCOC(=O)C1=C(c2ccccc2)OC(N)=C(C#N)C1c1ccc(Br)s1` (centres unmarked): 3.19%. In the case of `O=C(NCCC1=CCCCC1)C1CCN(S(=O)(=O)N2CCC3(CC2)OCCO3)CC1` it was -2.99%; in that of `CC(=O)N(C)C1(C(=O)NC2CCCC2)CCCCC1`, 3.05%. In the case of `COc1ccc(C(=O)NC(C)c2cc(OC)c(OC)cc2Br)cc1` (centres unmarked), the “% Inhibition @ 10 uM” value amounted to 1.83%. The same measure for `CCc1ccc(CNCc2c(C(=O)O)n(C)c3ccccc23)cc1`: -5.75%; for `CCOc1ccccc1C1C2=C(O)CCCC2=Nc2nc(SCC)nn21` (centres unmarked): -5.49%; for `CNC(=O)C1CCN(c2nnc(C)c3c(C)n(-c4ccc(C)cc4)nc23)CC1`: -5.51%.

`CCOC(=O)/C(C#N)=C(\C)c1ccc([N+](=O)[O-])cc1`: the “% Inhibition @ 10 uM” value is 1.54%.

Turning to `COc1ccc(/C=C2\SC(N3CCN(Cc4ccccc4)CC3)=NC2=O)c(OC)c1`, the “% Inhibition @ 10 uM” value is on record as 0.147%. In the case of `COc1ccc(C2=NN(C(=O)CCC(=O)O)C(c3ccc(OC)c(OC)c3)C2)cc1` (centres unmarked) it was -6.2%. In the case of `COc1ccc(-c2cc(C)no2)cc1S(=O)(=O)NCCSCc1ccco1` it was 4.55%; in that of `CCOc1cc(/C=C2/NC(=O)NC2=O)ccc1OCc1ccc(Cl)cc1Cl`, -3.06%; in that of `COc1cccc(-n2nnc3c(=O)n(CC(=O)NCc4ccccc4)cnc32)c1`, -3.94%. In the case of `COCCn1c(=N)c(C(=O)NCc2ccccc2)cc2c(=O)n3cccc(C)c3nc21` it was -1.47%; in that of `CC1CCN(C(=O)CN(Cc2ccccc2)S(=O)(=O)c2cc(Cl)ccc2Cl)CC1`, 3.79%. For `CCC(C)N(CCCNC(=O)c1nn(C)c2c1CS(=O)(=O)c1ccccc1-2)Cc1ccco1` (centres unmarked), the “% Inhibition @ 10 uM” value is listed as -3.8%. The same measure for `Cc1nc2c3ccccc3nc(SCC(=O)c3ccc(Cl)c(Cl)c3)n2n1`: 4.33%. For the compound `O=C(NCCC1=CCCCC1)C1CCN(c2nc3ccc(Br)cc3s2)CC1`, the “% Inhibition @ 10 uM” value is on record as -7.02%. In the case of `COc1ccc(-c2nc3ccccc3n2-c2cc(-c3ccccc3)nn2-c2ccccc2)cc1` it was -8.01%; in that of `Cc1noc(NS(=O)(=O)c2ccc(NC(=O)c3ccoc3C)cc2)c1C`, -1.44%.

On to `O=C(C1CCN(S(=O)(=O)N2CCCC2)CC1)N1CCOCC1`, for which the “% Inhibition @ 10 uM” value is listed as 3.79%. In the case of `Cc1cccc(-n2nnc(-c3nc(-c4ccc(Cl)cc4)no3)c2N)c1C` it was 0.868%; in that of `CCCN1CC=C2C(C#N)=C(N)C(C#N)(C#N)C(c3cccc(OC)c3OC)C2C1` (centres unmarked), 1.58%. With `CC(C)C[C@H](NC(=O)c1ccc(-n2ccnc2)nc1)C(=O)NCC#N`, the “% Inhibition @ 10 uM” value is on record as -0.778%. As for `CCOC(=O)C1=C(c2ccccc2)N2CCN=C2S1`, the “% Inhibition @ 10 uM” value came out at 6.06%.

As for `CCN(CC)C(=S)SC1=C(C)CS(=O)(=O)C1`, the “% Inhibition @ 10 uM” value was -7.7%. The same measure for `COCCCNc1oc(-c2ccc(OC)cc2)nc1C#N`: 3.43%; for `CN1CCC(OC(c2ccccc2)c2ccccc2)CC1`: 0.385%. The same measure for `N#CCNC(=O)[C@H](Cc1cc(Cl)c(O)c(Cl)c1)NC(=O)c1ccc(-c2ccc(Cl)cc2)cc1`: -3.25%; for `CCOC(=O)c1cnn2c(O)cc(C)nc12`: 3.74%; for `CCN(CC)C(=O)CSc1nc2ccc(NC(=O)c3ccccc3)cc2s1`: 4.09%.

Turning to `CN1CCN(c2nc3c(O)ncnc3n2C2OC(CO)C(O)C2O)CC1` (centres unmarked), the “% Inhibition @ 10 uM” value was 4.41%. In the case of `CC(=O)Nc1ccc(C(=O)Nc2ccc3c(c2)N(C(=O)CN(C)C)c2ccccc2CC3)cc1` it was 0.937%; in that of `O=C(c1ccc(CN2C(=O)CCn3nccc32)cc1)N1CCOCC1`, -1.6%; in that of `CCCSC1=C(C#N)C(c2ccco2)C(C(=O)Nc2ccccc2)=C(C)N1` (centres unmarked), 3.05%. On to `CCOc1cc(/C=C2\SC(=O)NC2=O)ccc1OCC(C)C`, for which the “% Inhibition @ 10 uM” value is -5.82%. In the case of `O=C(Nc1cccnc1)c1c(O)nc2ccccc2c1O` it was -3.23%; in that of `CCC(Cc1ccccc1)NC(=O)c1cc(C)nn1-c1ccccc1` (centres unmarked), -0.138%; in that of `CCN(CC)S(=O)(=O)c1ccc(F)c(C(=O)NCCC2=CCCCC2)c1`, -1.99%. Regarding `CN1CCC(N(C)Cc2ccc(-c3cccc(Cl)c3)o2)CC1`, the “% Inhibition @ 10 uM” value is given as 1.57%. The same measure for `O=C1CC(NCc2cccc(Cl)c2)C(=O)N1c1ccccc1` (centres unmarked): 6.48%. In the case of `Cc1nc2ccc(S(=O)(=O)NCC(=O)N3CCN(Cc4ccccc4)CC3)cc2s1` it was -0.72%. `Cc1cc2c(c(=O)o1)C1(C(=O)Nc3cc(Br)c(C)cc31)C(C#N)=C(N)O2` (centres unmarked): the “% Inhibition @ 10 uM” value is reported as -0.546%.

Consider `Cc1ccc(-c2ccc(=O)n(CC(=O)NCCCN3CCCCC3)n2)cc1`, for which the “% Inhibition @ 10 uM” value was -1.21%. The same measure for `CCCNC(=O)Cn1nc(C)n2c(cc3cc(OC)ccc32)c1=O`: 4.84%; for `Cc1ccccc1-c1nc(CS(=O)(=O)CC(=O)NCCCN2C(C)CCCC2C)c(C)o1` (centres unmarked): -0.138%; for `CCCCC(C(=O)N1CCOCC1)N1C(=O)C2C3c4ccccc4C(c4ccccc43)C2C1=O` (centres unmarked): 0.777%. The same measure for `Cc1cc(C)cc(NS(=O)(=O)c2c(C)cc(C)cc2C)c1`: 5.43%.

For the compound `CCc1ccccc1S(=O)(=O)Cc1ccc(C(=O)NCc2ccccc2Cl)o1`, the “% Inhibition @ 10 uM” value was 5.34%. In the case of `CCN(CC)C(=O)C1CCCN(Cc2cccnc2)C1` (centres unmarked) it was -4.5%. The same measure for `CC[C@H](C)[C@H](NC(=O)Cc1cccnc1)C(=O)N[C@@H](CCc1ccccc1)C(=O)CO`: -7.36%; for `O=C(CSc1nc(-c2ccccc2Cl)n[nH]1)c1ccccc1`: -0.25%; for `Cc1ccc(Cl)cc1NC(=O)c1sc2nc(-c3ccncc3)ccc2c1N`: -3.39%.

`CCCc1ccc(OCC(O)CN2CCCC2)cc1` (centres unmarked): the “% Inhibition @ 10 uM” value amounted to 6.25%. The same measure for `CC1CN(C(=O)c2cccc3c2-c2ccccc2C3=O)CC(C)O1` (centres unmarked): 2.46%; for `CCn1cc(/C=C(\NC(=O)c2ccccc2)C(=O)NCCN2CCOCC2)c2ccccc21`: -0.0235%; for `O=C(NCc1ccc(F)cc1)C1CCCN(S(=O)(=O)c2cccc3nonc23)C1` (centres unmarked): 2.35%. The same measure for `Cn1c(NCc2ccccc2)cc(=O)n(C)c1=O`: 13.2%; for `CC1CCCN(C(=O)c2ccc3c(c2)sc2nc(-c4ccc(F)cc4)cn23)C1` (centres unmarked): -5.15%.

`CCOc1ccc(/C=C/c2nc(C#N)c(N3CCN(Cc4ccccc4)CC3)o2)cc1`: the “% Inhibition @ 10 uM” value is given as -6.29%. In the case of `CC(=O)c1nc(C)c(O)c(O)c1C` it was -7.35%.

Consider `c1ccc(CN2CCN(Cc3c[nH]c4ccccc34)CC2)cc1`, for which the “% Inhibition @ 10 uM” value is given as -2.56%.

As to `COc1ccc(-c2cc(C(F)(F)F)n3nc(C(=O)NCc4cnn(C)c4C)c(Cl)c3n2)cc1`, the “% Inhibition @ 10 uM” value turned out to be 2.45%. The same measure for `CN(CCc1ccccn1)Cc1cccc(Br)c1`: 5.06%.
